Assay results taken from article PMC9023467.
These are yes or no findings as the source states them, for the method shown. For some assays here: In cells and extracts the contact can be indirect. Some binding calls cover weakened binding; strength is not graded here. For some assays here: Sequences can lack the tags named with a protein. Values belong to the molecule of their own block, whether it stands above or below them.

Sequences of proteins named here, by UniProt entry; tags and fusion partners are left off. A change or cut given only in a name is not applied to a line headed by its entry. Residues count along the entry.
UniProt P37231, residues 29-505: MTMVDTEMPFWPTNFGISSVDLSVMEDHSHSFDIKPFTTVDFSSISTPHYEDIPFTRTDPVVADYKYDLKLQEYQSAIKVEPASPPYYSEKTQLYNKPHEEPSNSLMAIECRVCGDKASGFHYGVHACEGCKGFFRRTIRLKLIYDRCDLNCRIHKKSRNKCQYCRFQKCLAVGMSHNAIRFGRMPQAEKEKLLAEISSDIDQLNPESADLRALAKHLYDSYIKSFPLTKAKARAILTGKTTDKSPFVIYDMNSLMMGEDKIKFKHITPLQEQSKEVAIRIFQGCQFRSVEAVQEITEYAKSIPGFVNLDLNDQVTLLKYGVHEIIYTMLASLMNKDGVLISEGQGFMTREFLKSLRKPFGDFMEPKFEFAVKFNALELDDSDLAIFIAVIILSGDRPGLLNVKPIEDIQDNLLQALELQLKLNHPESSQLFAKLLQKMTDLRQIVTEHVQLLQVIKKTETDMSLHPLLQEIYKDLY
UniProt Q03181: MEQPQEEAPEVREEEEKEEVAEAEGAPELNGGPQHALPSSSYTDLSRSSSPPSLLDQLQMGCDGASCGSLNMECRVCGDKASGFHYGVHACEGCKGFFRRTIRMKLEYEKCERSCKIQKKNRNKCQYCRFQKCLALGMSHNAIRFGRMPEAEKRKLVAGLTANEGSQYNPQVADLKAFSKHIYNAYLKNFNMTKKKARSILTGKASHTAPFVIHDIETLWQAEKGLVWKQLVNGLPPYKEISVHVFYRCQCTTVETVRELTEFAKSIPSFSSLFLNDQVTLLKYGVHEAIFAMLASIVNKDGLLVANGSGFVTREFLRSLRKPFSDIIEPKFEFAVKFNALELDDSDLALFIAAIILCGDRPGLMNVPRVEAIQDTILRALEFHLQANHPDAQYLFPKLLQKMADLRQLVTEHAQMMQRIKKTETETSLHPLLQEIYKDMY

Experiments:
[1] = target: T1, ubiquitin-specific protease 22 (USP22), endogenous (human (endogenous in MHCC-97H, MHCC-97L, HUH7, HepG2, SNU449, Bel-7402)) (UniProt Q9UPT9); assay: co-IP; lysates of HCC cells (MHCC-97H; MHCC-97L, HUH7, HepG2, SNU-449, Bel-7402) immunoprecipitated with IgG or USP22 antibodies, immunoblot; E1A lysis buffer (250 mM NaCl, 50 mM HEPES pH 7.5, 0.1% NP-40, 5 mM EDTA)
T1 sequence: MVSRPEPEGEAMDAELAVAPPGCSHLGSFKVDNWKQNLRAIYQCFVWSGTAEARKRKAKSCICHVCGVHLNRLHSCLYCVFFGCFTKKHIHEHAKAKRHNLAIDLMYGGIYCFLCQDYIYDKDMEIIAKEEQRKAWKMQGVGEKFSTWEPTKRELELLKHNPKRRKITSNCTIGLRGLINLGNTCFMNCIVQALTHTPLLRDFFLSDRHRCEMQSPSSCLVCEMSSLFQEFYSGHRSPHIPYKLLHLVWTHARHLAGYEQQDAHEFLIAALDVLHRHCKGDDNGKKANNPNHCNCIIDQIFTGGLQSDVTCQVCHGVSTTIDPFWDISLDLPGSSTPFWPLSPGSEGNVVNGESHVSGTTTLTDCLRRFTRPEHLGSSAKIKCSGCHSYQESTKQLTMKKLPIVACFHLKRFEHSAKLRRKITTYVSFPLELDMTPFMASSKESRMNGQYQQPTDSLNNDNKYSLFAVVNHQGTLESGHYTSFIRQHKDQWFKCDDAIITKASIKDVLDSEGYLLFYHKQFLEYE

Myc-USP22 = target: T2, Myc-USP22 (UniProt Q9UPT9); assay: co-IP; HEK293T transfected for 24 h with Flag-PPARγ or Myc-USP22 alone or in combination; lysates immunoprecipitated with Flag and Myc antibodies, immunoblot with Myc or Flag antibodies
T2 sequence: T1 sequence

[2] = target: GST-tagged PPARγ (GST-PPARγ) (UniProt P37231); assay: pull-down; GST-PPARγ immobilised on GST-tag resin, incubated with purified His-USP22 at 4 °C for 4 h in 50 mM Tris-HCl, 200 mM NaCl, 1 mM EDTA, 1% NP-40, 1 mM DTT, pH 8.0; Western blot; both purified

Molecule: PPARδ, endogenous (from UniProt Q03181 1-441)
binding [1]: no binding

Molecule: peroxisome proliferator-activated receptor gamma (PPARγ), endogenous (from UniProt P37231-2 1-477)
binding [1]: binds

B1: 6×His-tagged USP22 (His-USP22) (enzyme, UniProt Q9UPT9 1-525)
chain: T1 sequence
binding [2]: binds

Continued, values first:

binding (Myc-USP22): binds
Molecule: Flag-PPARγ (from UniProt P37231-2 1-477)

binding [1]: no binding
B2: PPARα, endogenous (protein, UniProt Q07869 1-468)
chain: MVDTESPLCPLSPLEAGDLESPLSEEFLQEMGNIQEISQSIGEDSSGSFGFTEYQYLGSCPGSDGSVITDTLSPASSPSSVTYPVVPGSVDESPSGALNIECRICGDKASGYHYGVHACEGCKGFFRRTIRLKLVYDKCDRSCKIQKKNRNKCQYCRFHKCLSVGMSHNAIRFGRMPRSEKAKLKAEILTCEHDIEDSETADLKSLAKRIYEAYLKNFNMNKVKARVILSGKASNNPPFVIHDMETLCMAEKTLVAKLVANGIQNKEAEVRIFHCCQCTSVETVTELTEFAKAIPGFANLDLNDQVTLLKYGVYEAIFAMLSSVMNKDGMLVAYGNGFITREFLKSLRKPFCDIMEPKFDFAMKFNALELDDSDISLFVAAIICCGDRPGLLNVGHIEKMQEGIVHVLRLHLQSNHPDDIFLFPKLLQKMADLRQLVTEHAQLVQIIKKTESDAALHPLLQEIYRDMY
